Data reported in the supplement of paper PMC3334620.
Whole data set: some 33,000 sequences, median “E-score (-0.5 to 0.5)” near -0.021, cut for the highest 2% near 0.32. Some of the results follow.

Target: T1, Zap1 (UniProt P47043)
T1 sequence: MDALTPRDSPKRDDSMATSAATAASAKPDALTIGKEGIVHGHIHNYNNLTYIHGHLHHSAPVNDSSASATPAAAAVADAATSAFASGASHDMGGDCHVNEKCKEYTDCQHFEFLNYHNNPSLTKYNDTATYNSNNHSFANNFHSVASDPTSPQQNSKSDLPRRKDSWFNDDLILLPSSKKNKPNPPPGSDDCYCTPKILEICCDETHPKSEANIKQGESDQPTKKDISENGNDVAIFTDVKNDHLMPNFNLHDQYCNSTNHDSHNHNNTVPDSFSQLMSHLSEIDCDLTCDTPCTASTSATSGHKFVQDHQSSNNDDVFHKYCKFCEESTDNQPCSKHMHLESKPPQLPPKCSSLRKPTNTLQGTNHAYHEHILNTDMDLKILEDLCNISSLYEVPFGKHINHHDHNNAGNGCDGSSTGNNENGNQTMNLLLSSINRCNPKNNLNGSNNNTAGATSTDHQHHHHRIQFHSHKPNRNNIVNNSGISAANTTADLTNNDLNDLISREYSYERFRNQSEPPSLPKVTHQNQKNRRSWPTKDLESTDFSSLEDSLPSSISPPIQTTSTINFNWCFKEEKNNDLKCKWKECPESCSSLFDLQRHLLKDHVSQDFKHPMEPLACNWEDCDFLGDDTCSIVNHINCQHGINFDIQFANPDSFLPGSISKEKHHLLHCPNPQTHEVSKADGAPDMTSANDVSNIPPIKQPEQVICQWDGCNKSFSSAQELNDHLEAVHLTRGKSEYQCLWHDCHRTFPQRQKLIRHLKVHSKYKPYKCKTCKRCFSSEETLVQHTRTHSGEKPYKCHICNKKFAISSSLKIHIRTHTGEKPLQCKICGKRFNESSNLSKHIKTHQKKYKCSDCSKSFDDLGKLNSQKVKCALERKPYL
Assay: PBM E-score (8-mer binding enrichment) (E-score (-0.5 to 0.5)); higher = stronger / more preferred TF binding; most listed sequences are background and not binding sites
Conditions: protein concentration: 200 nM; construct: GST-full length
Summary of the method: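 Each ungapped eight-base word and its reverse complement, pooled, received an E-score from the Universal PBM Analysis Suite. Underlying scans, normalised with masliner, recorded fluorescent anti-GST bound to GST-tagged yeast transcription factors. These were applied at about 100-200 nM to universal all-10-mer Agilent arrays double-stranded by primer extension.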

| Sequence | PBM E-score |
| --- | --- |
| CACGGCGC | -0.0917 |
| ACGGCTAT | -0.243 |
| AAAATTGG | 0.04 |
| GGGCTCGA | -0.137 |
| CCGTTGTC | 0.0475 |
| CACGCGGC | -0.0534 |
| ATGAGCTC | -0.24 |
| CAATACTC | 0.0447 |
| CGATGGGC | -0.107 |
| CTAGAAAA | -0.017 |
| CTCTGTTC | -0.0878 |
| GCTAAAGA | -0.0113 |
| TATCCAAA | 0.229 |
| TCTGATAA | -0.0662 |
| GGTAAAAA | 0.274 |
| ACTGTCGC | -0.224 |
| AAGGACAC | 0.213 |
| GGCTTCGA | 0.00536 |
| CACAAAGA | 0.137 |
| AGGACCAC | 0.0741 |
| GATTCCAC | 0.0825 |
| ACGTAGAT | -0.133 |
| ACCTCGTC | 0.0929 |
| GGCGGGAC | -0.0762 |
| CGCGCCAG | -0.0551 |

| Sequence | PBM E-score |
| --- | --- |
| GTCCTTTA | 0.132 |
| GTGCCTCA | -0.0906 |
| GGTGGAAA | -0.203 |
| GGATAATA | -0.0472 |
| AAGGTGAC | 0.261 |
| AAAGATTC | 0.189 |
| CTAACATA | 0.0378 |
| GTCGCAAC | 0.177 |
| GGCACGGA | -0.149 |
| CCTCTCTA | -0.249 |
| CTCTTGTA | 0.0887 |
| AAAACCAC | 0.197 |
| GCGCGTGA | -0.00686 |
| GGGTACAC | 0.141 |
| CTCCATAC | 0.0236 |
| ACACTAGG | -0.0686 |
| GACGCTTA | -0.181 |
| GAAGCTCC | -0.243 |
| CCCAAGCA | 0.102 |
| CATACAGC | -0.249 |
| GCTCCAGC | -0.0997 |
| GCCACGGC | 0.0167 |
| AGTCGTAA | 0.176 |
| GGGAGCAA | -0.283 |
| ACTTACGA | 0.136 |

| Sequence | PBM E-score |
| --- | --- |
| AGGGTGGA | 0.163 |
| ATAGTATG | 0.0547 |
| CAGTGTAG | 0.00851 |
| CACCCGCC | 0.114 |
| GAAAAACA | 0.123 |
| GGAACTAC | 0.0621 |
| CGGGAAGC | -0.159 |
| ACCTCAAA | 0.326 |
| CCCTGGCA | -0.0254 |
| TAGGAGGA | -0.0353 |
| AAACCGGA | 0.00487 |
| AACCTTTA | 0.398 |
| CCGTCCTC | -0.191 |
| CTTACGGC | -0.0265 |
| CTGGCGCA | -0.328 |
| GCTTTGCA | -0.0691 |
| AACACCCC | 0.0776 |
| GTGCCCAC | -0.0966 |
| CCAAGTAA | 0.271 |
| CTTTTAGA | 0.00325 |
| AGAGTTAT | 0.189 |
| GACGAGTA | -0.0693 |
| GACACAGC | -0.0871 |
| CCCCCGCC | -0.316 |
| CGATGTCA | -0.222 |

| Sequence | PBM E-score |
| --- | --- |
| ACGTCTCT | -0.0811 |
| AACGCTAG | -0.162 |
| CCATCATC | -0.0678 |
| AGAACGAG | 0.0577 |
| TCCAGGCA | -0.0239 |
| GCTCACAA | 0.0225 |
| ATATATAT | 0.145 |
| ATATCAAC | 0.147 |
| ACCGCGTG | 0.0398 |
| CTAGGCTC | -0.203 |
| CGTCCAAC | 0.0234 |
| GTCCCGAA | -0.13 |
| AAGACACA | 0.0314 |
| CAGCATGA | -0.0653 |
| AAATATCT | -0.0382 |
| ACCGGGTA | 0.295 |
| AAAGTCGA | -0.0678 |
| GAGCACGC | -0.139 |
| AATCATAC | 0.0791 |
| AACACGCT | -0.185 |
| ACCGTCTA | -0.05 |
| CTGTGTCC | 0.0345 |
| ACTCTAGC | -0.282 |
| CTTTTCTC | 0.101 |
| AAGATCAG | -0.154 |

| Sequence | PBM E-score |
| --- | --- |
| ACTCGGTA | -0.0647 |
| TAGCCCTA | -0.0869 |
| CCTATTCG | -0.0135 |
| CTCTGATA | -0.0467 |
| CGCGCAGC | -0.3 |
| CAAGTCTA | -0.141 |
| TAGGGCGA | -0.136 |
| CCTGGTCC | -0.139 |
| TAATGAGA | 0.0845 |
| AATCTGAC | 0.028 |
| AGTGATTA | 0.11 |
| CCCTCCGA | -0.0396 |
| GGCTCTCA | -0.245 |
| CATACTTA | 0.012 |
| CGACTATC | 0.00971 |
| ATAGAAAT | 0.162 |
| ATCCCCAA | 0.0399 |
| GGGAGATA | -0.215 |
| AGAGAATC | -0.152 |
| CGAACACA | 0.085 |
| CCGATCGC | 0.0373 |
| TCATCGAA | -0.0562 |
| AGTATGAT | 0.125 |
| CGCGGTTA | 0.452 |
| ACGTTTTG | 0.0918 |

| Sequence | PBM E-score |
| --- | --- |
| CCGGTGAG | -0.0983 |
| GTCTAAAA | -0.00945 |
| GGCGAGCA | -0.231 |
| GGATTGCA | -0.127 |
| AAAGGTGA | 0.25 |
| AGAAAAGG | 0.0723 |
| ATAAACGG | 0.118 |
| TACATACA | 0.00913 |
| GATGATAC | -0.0151 |
| GCTAATAA | -0.0122 |
| CAGGCAGG | -0.155 |
| GCCCGCGC | -0.0387 |
| AATCGTCA | 0.0319 |
| CACCCCTG | -0.0914 |
| ACCGTAGG | -0.0554 |
| CCTATCCG | -0.0601 |
| CGCGTTAA | 0.117 |
| CGGCGACG | -0.175 |
| AATCGTGA | 0.0307 |
| CCTGTACG | -0.0288 |
| AGTGTCGG | -0.122 |
| CACGTCGG | -0.303 |
| CAATCGGA | -0.102 |
| ACGTCAGT | -0.317 |
| GACGTATA | -0.238 |

| Sequence | PBM E-score |
| --- | --- |
| CACGCCAA | -0.19 |
| ATAAAAGC | -0.178 |
| TTACCAAA | 0.211 |
| AGTGGTTC | 0.129 |
| GATGAGGC | -0.098 |
| GAAGCGCA | -0.224 |
| GCCTCTAC | 0.0481 |
| CCAGCAGC | -0.134 |
| AGGGTCAA | 0.416 |
| GGTAATAC | 0.248 |
| ATAAGTTA | 0.132 |
| GTCGTAAC | 0.256 |
| AGCCCTTA | -0.176 |
| ACCGATAA | 0.24 |
| CTGTAGTC | -0.0922 |
| ACTAGCAG | 0.00907 |
| AGCTCTAC | -0.0949 |
| ATACTAAG | 0.0574 |
| CCTTGCCA | -0.0128 |
| GAATTCCC | -0.00977 |
| CCGAGAAA | 0.187 |
| ATGCTGCC | -0.17 |
